Assay results taken from the supplement of paper PMC3334620.
The full ranking holds about 33,000 sequences; the median of “E-score (-0.5 to 0.5)” is about -0.056, and the highest 2% start at about 0.38. This is one part of the list.

Target: Stb4 (UniProt P50104)
Test: PBM E-score (8-mer binding enrichment) (E-score (-0.5 to 0.5)); higher = stronger / more preferred TF binding; most listed sequences are background and not binding sites
Conditions: protein concentration: 200 nM; construct: GST-DNA-binding domain
In short: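 Universal all-10-mer Agilent arrays, double-stranded by primer extension on fresh or once-stripped slides, were probed with about 100-200 nM GST-tagged yeast transcription factors made by PURExpress. Fluorescent anti-GST detected bound protein, and masliner normalised the scans. E-scores from the Universal PBM Analysis Suite were given to each ungapped eight-base word pooled with its reverse complement.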

Row | Sequence | PBM E-score
1 | AAATACCC | 0.272
2 | CTACGTAA | -0.00563
3 | ATGCCTGC | -0.0821
4 | CATACAGA | -0.0776
5 | ATGGAGGC | -0.205
6 | AAGTTCGA | 0.0503
7 | CTGTACGC | -0.106
8 | GCCGAAAA | 0.438
9 | AGTCAACT | -0.19
10 | CTAGTGCA | -0.159
11 | CAATCGGC | 0.21
12 | ACAAATTC | 0.0587
13 | GCCAAACA | -0.0024
14 | TGTGCCAA | -0.0346
15 | CCTGACAG | -0.17
16 | GCCGCACC | 0.122
17 | CCAAGCTC | -0.068
18 | CACAATAA | -0.255
19 | CAGTATTC | 0.0209
20 | GCAAAGCA | -0.0523
21 | GCTCGGCC | 0.289
22 | ACAGTACT | -0.225
23 | CTCCCGTC | 0.151
24 | AGGGCTCA | -0.326
25 | AATCGGGA | 0.342

Row | Sequence | PBM E-score
26 | CTATCGAC | -0.0993
27 | CATTTTAG | 0.177
28 | CGCTCCAC | -0.0941
29 | ACAGCCTC | -0.146
30 | TCTTTACA | -0.128
31 | ATGGCATG | -0.0513
32 | AGCTAAAA | -0.0535
33 | TAGAGCAA | -0.356
34 | ATTCGAAG | -0.187
35 | AAGGCTGT | -0.0862
36 | AGGGCCTC | -0.156
37 | CGCGGTAA | 0.188
38 | GGTCGAAA | -0.161
39 | GACCCTAC | 0.0842
40 | GGTACTCA | 0.0578
41 | ATAGCGAT | -0.217
42 | CTGCCGTA | -0.0101
43 | GCACCATA | -0.021
44 | CTTTTGTC | 0.00367
45 | TATCACAA | -0.144
46 | CCCTTCAC | -0.306
47 | GGTTCGTA | 0.0851
48 | ATGTCGTA | -0.29
49 | AGAACCTG | -0.168
50 | GATTAAAC | -0.0253

Row | Sequence | PBM E-score
51 | CGTGTCCA | -0.21
52 | TAACGATA | -0.0839
53 | AGGGACTC | -0.122
54 | AGGGCGGA | 0.225
55 | ACCAAGTG | -0.251
56 | GTCGGCGA | 0.126
57 | TGATCGAA | -0.125
58 | CAGCTCAG | -0.244
59 | AATGGTGT | -0.107
60 | CCTGTCCC | 0.0307
61 | ATATTTCC | 0.332
62 | TATGCCGA | 0.411
63 | ACAGTGGC | -0.171
64 | GGGCTGGA | -0.0498
65 | CGTTCAAG | 0.0705
66 | GCAGAGGA | -0.175
67 | TCCCATAA | -0.109
68 | AACACAGT | -0.0685
69 | CAGTAACG | -0.07
70 | TACCTCGA | -0.226
71 | ATTTACCA | -0.0178
72 | ACAGTTGC | 0.0539
73 | CCGCTTCC | 0.299
74 | CCACTTAA | -0.0908
75 | AGGTGCTC | -0.148

Row | Sequence | PBM E-score
76 | AAGAGATC | -0.0109
77 | CATCTACG | 0.037
78 | AAACTCGC | -0.0551
79 | AGCCCCAC | -0.0851
80 | AGTGGAGC | -0.233
81 | ATAAATCA | -0.229
82 | CGGAGCTA | 0.21
83 | AGGTGGCA | -0.0654
84 | TATGCCAA | -0.209
85 | CCGGTGAA | 0.203
86 | AACTTGAC | -0.175
87 | CTACGGAA | 0.222
88 | CCCTGCAC | -0.0965
89 | GCATTAGA | -0.0482
90 | GCGCCGAC | 0.195
91 | GATACCGA | 0.291
92 | GAGAGTAC | -0.141
93 | GGATACCA | 0.213
94 | AAGGTCGT | -0.257
95 | AGGGAGTC | -0.203
96 | AAAGCCTC | -0.00345
97 | CCATTGCA | -0.322
98 | CAATTGAC | -0.153
99 | CTCGAACA | -0.237
100 | ACCGACCG | 0.219

Row | Sequence | PBM E-score
101 | AGTTCTAC | -0.25
102 | CCGTAGCC | 0.102
103 | ACTTACTG | -0.0168
104 | CCACCGCC | -0.0563
105 | ATTTGGCA | -0.19
106 | GAGACTCA | -0.119
107 | GCCTGTTA | -0.103
108 | AGATGAAG | -0.0847
109 | GGCAACCA | 0.0103
110 | ACTCATGG | -0.198
111 | ATTTCTTC | 0.0792
112 | AGGGGCTG | -0.203
113 | CTATCCTA | 0.0276
114 | CGGTAATC | 0.29
115 | AGCATCCA | -0.115
116 | GCAAATCC | 0.139
117 | ATGGTTAG | 0.0424
118 | CTCCACAC | -0.0586
119 | AACCGGAG | 0.23
120 | CTGCAAAG | -0.28
121 | GGGGAGCA | -0.1
122 | GCCGCCAC | -0.0982
123 | CTGCTTAA | -0.0228
124 | CTGCCCAG | -0.0952
125 | CCAGTTAG | -0.273

Row | Sequence | PBM E-score
126 | CTGAAGTA | -0.102
127 | ACAACGTG | -0.147
128 | CAGCTAAG | -0.386
129 | GGCTAGAC | 0.114
130 | CGGCAACG | 0.285
131 | AACGGCTT | 0.0277
132 | CTCATGTC | -0.129
133 | GCAGGTGA | -0.137
134 | AGCCATGG | -0.307
135 | ATCGGTTC | 0.261
136 | AGCCTTCC | 0.0678
137 | TACGGCTA | 0.142
138 | CAGATGAG | -0.253
139 | CTAGGGCC | -0.224
140 | CCGATCAC | 0.287
141 | TAAACCGA | 0.309
142 | CGTGGGGA | -0.0676
143 | AGGGCCAT | -0.253
144 | AGCCCTGC | -0.234
145 | GTTCGTCA | -0.118
146 | AGCTCCGA | 0.371
147 | CCGCTAAG | 0.0575
148 | CGGGCCCG | 0.419
149 | AGTAGATG | -0.153
150 | CAGGCCAC | -0.134

Row | Sequence | PBM E-score
151 | CAGACGCG | -0.152
152 | GGGAGTAA | 0.114
153 | AGGGGTAC | -0.0696
154 | CTATTCAA | -0.178
155 | GTGACACA | 0.0185
156 | ACCGGGAA | 0.335
157 | AGCACGCG | -0.0461
158 | ACTCATTG | -0.0916
159 | AGCTTGGC | -0.17
160 | GGGGCCAA | -0.14
161 | AGAGCTGG | -0.00157
162 | GGAGCCCA | -0.203
163 | GACTGTAA | -0.137
164 | GCCTTTGA | -0.0711
165 | ACTTAGGA | -0.382
166 | GTAGTTAA | -0.0019
167 | GCTATAGA | -0.0826
168 | CGGACCTC | 0.124
169 | CCGGAGTC | 0.257
170 | CGCTTGGC | -0.246
171 | CGAGACTA | 0.0386
172 | AGTTTAAC | -0.108
